# Reference: PubChem BioAssay (Tox21)
# The inconclusive results got no clear call from the source; some entries with a clear call stand among them for comparison. For some assays here: Potencies of inconclusive entries are doubtful fits and often do not repeat. Some structures have more than one record in an assay (separate samples or runs), and their calls can disagree. Activity calls are given as the source filed them. Unless noted, calls follow the shape of the dose curve; as a rule, active = well fitted curve in the direction sought with a large enough effect in the repeat runs; inconclusive = weak or mixed curves; inactive = no such curve, though single readings can be large; an effect the other way counts as inactive or inconclusive.
# Experiments:
# [1] = qHTS assay to identify small molecule agonists of the hypoxia (HIF-1) signaling pathway (AID 1224846; active = well fitted activation curve with a large enough effect in the signal ratio in the repeat runs, not every such curve was filed as active; inconclusive = weak or mixed curves; the % refers to the signal ratio; also: potency is read from the fitted curve at half-maximal effect; as to activation: % is scaled to controls: 0 for no effect and ±100 for the full control effect); conditions: HRE-bla ME-180 cells, beta-lactamase ratio, 17 h; activation: at 76.8 µM (top of the series) unless noted
# How it was run: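 Steps: seed ME-180 HRE-bla cells (2,000/well, 0.5% dialyzed FBS); incubate 5 hrs at 37C; pin-transfer compounds or DMSO; incubate 17 hrs; add LiveBLAzer B/G substrate CCF4-AM; measure reporter activation by FRET.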
# [2] = qHTS assay to identify small molecule agonists of H2AX - cell viability counter screen (AID 1224847; calls by dose curve; also: potency is read from the fitted curve at half-maximal effect; nearly all actives have a fitted effect of over 30% in size); conditions: CHO-K1 viability, CellTiter-Glo luminescence, 3 h; series mostly up to 154 µM
# How it was run: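 For this counter screen, overnight-attached CHO-K1 cells received test compounds (15 concentrations, 0.76% DMSO final); 3 hr later at 37C, CellTiter-Glo reagent was added and luminescence recorded after 30 min at room temperature.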
# [3] = A CellTox Green Cytotoxicity Assay to monitor cytotoxicity in HEK293 cells - 40 hour (AID 1224871); conditions: CellTox Green fluorescence; series mostly up to 76.8 µM; also: potency is read from the fitted curve at half-maximal effect; nearly all actives have a fitted effect of over 45% in size
# How it was run: (§1)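 Cytotoxicity was tracked continuously in HEK293 cells by a DNA-binding dye excluded from viable cells. Compounds were transferred in DMSO 5 h after seeding; fluorescence was recorded at intervals up to 40 h.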
# [4] = A CellTox Green Cytotoxicity Assay to monitor cytotoxicity in HepG2 cells - 24 hour (AID 1224878); conditions: CellTox Green fluorescence; series mostly up to 76.8 µM; also: nearly all actives have a fitted effect of over 45% in size; also: potency is read from the fitted curve at half-maximal effect; as to Cytotoxicity: % is scaled to controls: 0 for no effect and ±100 for the full control effect
# How it was run: (§2)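 Real-time, homogeneous cytotoxicity readout: dead-cell DNA staining by CellTox Green in HepG2 monolayers, fluorescence measured at timed intervals up to 40 h of continuous compound exposure.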
# [5] = A CellTox Green Cytotoxicity Assay to monitor cytotoxicity in HepG2 cells - 40 hour (AID 1224879); conditions: CellTox Green fluorescence; series mostly up to 76.8 µM; also: nearly all actives have a fitted effect of over 40% in size; also: potency is read from the fitted curve at half-maximal effect
# How it was run: as §2
# [6] = qHTS RealTime-Glo MT Cell Viability Assay in HEK293 cells - 0 hour (AID 1224880); conditions: RealTime-Glo luminescence; series mostly up to 76.8 µM; also: potency is read from the fitted curve at half-maximal effect; nearly all actives have a fitted effect of over 45% in size
# How it was run: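 Nonlytic bioluminescent viability monitoring. HEK293 at 600 cells/well with reagent; 5 h settle; compound transfer by pintool; plates held at 37 C and read at set time points.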
# [7] = A CellTox Green Cytotoxicity Assay to monitor cytotoxicity in HEK293 cells - 32 hour (AID 1224881); conditions: CellTox Green fluorescence; series mostly up to 76.8 µM; also: nearly all actives have a fitted effect of over 40% in size; also: potency is read from the fitted curve at half-maximal effect
# How it was run: as §1
# [8] = qHTS assay to identify small molecule agonists of the estrogen related receptor (ERR) signaling pathway from Tox21 library (AID 1224849; calls by dose curve; also: % is scaled to controls: 0 for no effect and ±100 for the full control effect; nearly all actives have a fitted effect of over 15% in size); conditions: ERR reporter cell line, ONE-Glo luciferase, 18 h; at 92.4 µM (top of the series) unless noted
# How it was run: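 Agonist signal is luciferase luminescence from an ERR reporter cell line treated 18 h at 37 C with DMSO-dissolved compounds, read 30 min after ONE-Glo addition at room temperature.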
# [9] = A CellTox Green Cytotoxicity Assay to monitor cytotoxicity in HEK293 cells - 0 hour (AID 1224869); conditions: CellTox Green fluorescence; series mostly up to 76.8 µM; also: potency is read from the fitted curve at half-maximal effect; nearly all actives have a fitted effect of over 50% in size
# How it was run: as §1
# [10] = A CellTox Green Cytotoxicity Assay to monitor cytotoxicity in HepG2 cells - 16 hour (AID 1224876); conditions: CellTox Green fluorescence; series mostly up to 76.8 µM; also: nearly all actives have a fitted effect of over 45% in size; also: potency is read from the fitted curve at half-maximal effect
# How it was run: as §2
# [11] = qHTS RealTime-Glo MT Cell Viability Assay in HEK293 cells - 16 hour (AID 1224872); conditions: RealTime-Glo luminescence; series mostly up to 76.8 µM; also: nearly all actives have a fitted effect of over 50% in size; also: potency is read from the fitted curve at half-maximal effect
# How it was run: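 Assay medium contained NanoLuc luciferase plus cell-permeant prosubstrate, added with HEK293 cells at 600 cells/well. After 5 h at 37 C/5% CO2 compounds were added; plates stayed at 37 C for 40 h with serial luminescence reads.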
# [12] = qHTS RealTime-Glo MT Cell Viability Assay in HepG2 cells - 8 hour (AID 1224873); conditions: RealTime-Glo luminescence; series mostly up to 76.8 µM; also: nearly all actives have a fitted effect of over 55% in size; also: potency is read from the fitted curve at half-maximal effect
# How it was run: (§3)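 HepG2 cells mixed with RealTime-Glo MT reagents (NanoLuc plus cell-permeant prosubstrate) were seeded at 600 cells/well, incubated 5 h at 37 C/5% CO2, then pinned with compounds in DMSO; nonlytic luminescence tracked viability during 40 h treatment.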
# [13] = A CellTox Green Cytotoxicity Assay to monitor cytotoxicity in HepG2 cells - 0 hour (AID 1224882); conditions: CellTox Green fluorescence; series mostly up to 76.8 µM; also: % is scaled to controls: 0 for no effect and ±100 for the full control effect; nearly all actives have a fitted effect of over 35% in size
# How it was run: as §2
# [14] = qHTS RealTime-Glo MT Cell Viability Assay in HepG2 cells - 40 hour (AID 1224870); conditions: RealTime-Glo luminescence; series mostly up to 76.8 µM; also: nearly all actives have a fitted effect of over 50% in size; also: potency is read from the fitted curve at half-maximal effect
# How it was run: as §3
# [15] = A CellTox Green Cytotoxicity Assay to monitor cytotoxicity in HEK293 cells - 24 hour (AID 1224875); conditions: CellTox Green fluorescence; series mostly up to 76.8 µM; also: nearly all actives have a fitted effect of over 45% in size; also: potency is read from the fitted curve at half-maximal effect; as to activity change: % is scaled to controls: 0 for no effect and ±100 for the full control effect
# How it was run: as §1
# [16] = qHTS RealTime-Glo MT Cell Viability Assay in HepG2 cells - 32 hour (AID 1224877); conditions: RealTime-Glo luminescence; series mostly up to 76.8 µM; also: % is scaled to controls: 0 for no effect and ±100 for the full control effect; nearly all actives have a fitted effect of over 55% in size
# How it was run: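 qHTS, HepG2, 600 cells/well, RealTime-Glo (NanoLuc + prosubstrate) added with cells; 5 h preincubation; DMSO compound addition; 37 C; luminescence at 0/8/16/24/32/40 h.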
# Tags tell the direction and shape of the fitted curve or compound fluorescence and quenching.
smiles,measurement,setting,value
CCCCC/C=C\C/C=C\CCCCCCCC(=O)OC,Potency,[1],inactive
same,Potency,[2],inconclusive: 113 µM [cytotoxic]
same,Potency,[3],active: 54.9 µM
same,Potency,[4],"inconclusive: 54.9 µM [activator, single point]"
same,Potency,[5],"inconclusive: 54.9 µM [activator, single point]"
same,Potency,[6],"inconclusive: 10.8 µM [falling, full curve]"
same,Potency,[7],"inconclusive: 43.6 µM [activator, partial curve, poor fit]"
O=C(O)CCCCCCCCCCCC(=O)O,"activity change, positive = activation",[8],inconclusive: 17.9%
CCCCCCCCCCCCCCCO,"activity change, positive = activation",[8],inconclusive: -4.32%
Nc1ccc2c3c(cccc13)-c1ccccc1-2,Potency,[9],active: 22.1 µM
C=C(C)[C@@H]1CCC2=CC(=O)C[C@@H](C)[C@]2(C)C1,Potency,[1],inactive
same,Potency,[10],"inconclusive: 54.9 µM [activator, partial curve, poor fit]"
same,Potency,[4],"inconclusive: 54.9 µM [activator, single point]"
same,Potency,[5],"inconclusive: 54.9 µM [activator, single point]"
CCCCN(CCCC)C(=S)SSC(=S)N(CCCC)CCCC,Potency,[1],"inconclusive: 54.4 µM [falling, single point]"
same,Potency,[3],"inconclusive: 48.5 µM [activator, partial curve]"
same,Potency,[11],active: 48.5 µM
same,Potency,[12],"inconclusive: 48.5 µM [falling, partial curve, poor fit]"
COCCc1ccc(OCC2CO2)cc1 (centres undefined),Potency,[1],inactive
same,Potency,[10],inactive
same,Potency,[13],inactive
Cc1c(N=C=O)cccc1N=C=O,Potency,[1],"inconclusive: 44.5 µM [rising, partial curve]"
same,Potency,[4],"inconclusive: 56 µM [activator, single point]"
same,Potency,[5],"inconclusive: 56 µM [activator, partial curve, poor fit]"
O=C(O)CCS,Potency,[1],inactive
same,Potency,[11],inactive
CC/C=C/CCO,Potency,[1],"inconclusive: 28 µM [rising, partial curve, poor fit]"
same,Potency,[14],inactive
O=C1CCCN1CCO,Potency,[1],"inconclusive: 30.9 µM [rising, partial curve]"
same,Potency,[15],inactive
ClCCl,Potency,[1],inactive
same,Potency,[15],inactive
C[C@H]1c2cccc(O)c2C(O)=C2C(=O)[C@]3(O)C(O)=C(C(N)=O)C(=O)[C@@H](N(C)C)[C@@H]3[C@@H](O)[C@@H]21,Potency,[1],inactive
same,Potency,[11],inactive
NC(=O)NS(=O)(=O)c1ccc(N)cc1,Potency,[1],inactive
same,Potency,[12],inactive
same,Potency,[10],inactive
CCCCOC(=O)CCCCC(=O)OCCCC,Potency,[1],inactive
same,Potency,[4],inactive
same,Potency,[7],inactive
C=CCCCCCCCCO,Potency,[1],inactive
same,Potency,[3],"inconclusive: 24.5 µM [activator, single point]"
same,Potency,[15],"inconclusive: 21.9 µM [activator, single point]"
same,Potency,[4],"inconclusive: 61.6 µM [activator, single point]"
same,Potency,[5],"inconclusive: 61.6 µM [activator, single point]"
same,Potency,[7],"inconclusive: 21.9 µM [activator, single point]"
Cc1cc(O)cc(C)c1Cl,Potency,[1],inactive
same,Potency,[14],inactive
same,Potency,[4],"inconclusive: 54.9 µM [activator, single point]"
same,Potency,[5],"inconclusive: 54.9 µM [activator, single point]"
CC(=O)OC[C@H]1O[C@@H](OC(C)=O)[C@H](OC(C)=O)[C@@H]1OC(C)=O,Potency,[1],inactive
same,Potency,[12],inactive
CN1CC(=O)N/C1=N/C(=O)Nc1cccc(Cl)c1,Potency,[1],inactive
same,Potency,[14],inactive
CC(C)CCCC(C)(C)O,Potency,[1],inactive
same,Potency,[15],inactive
same,Potency,[5],inactive
Cc1cc(CCC(=O)OCCOCCOCCOC(=O)CCc2cc(C)c(O)c(C(C)(C)C)c2)cc(C(C)(C)C)c1O,Potency,[1],inactive
same,Potency,[16],inactive
CC(C)(C)c1csc(-c2cc3cc(OCc4ccccc4CC(=O)O)ccc3o2)n1,Potency,[1],inconclusive: 54.9 µM [single point]
same,Potency,[11],"inconclusive: 49 µM [cytotoxic, partial curve]"
same,Potency,[12],"inconclusive: 43.6 µM [falling, single point]"
same,Potency,[15],active: 54.9 µM
same,Potency,[10],active: 54.9 µM
same,Potency,[16],inactive
COC(=O)N/N=C/c1c[n+]([O-])c2ccccc2[n+]1[O-],Potency,[1],inactive
same,Potency,[3],"inconclusive: 21.3 µM [activator, single point]"
same,Potency,[15],active: 21.3 µM
same,Potency,[4],active: 23.9 µM
same,Potency,[7],active: 21.3 µM
CC(C)n1c(/C=C/[C@@H](O)C[C@@H](O)CC(=O)O)c(-c2ccc(F)cc2)c2ccccc21,Potency,[1],inactive
same,Potency,[14],"inconclusive: 21.3 µM [falling, partial curve, poor fit]"
same,Potency,[3],"inconclusive: 24.5 µM [activator, single point]"
same,Potency,[15],"inconclusive: 10.7 µM [activator, single point]"
